# Test results from PubChem BioAssay (NCATS).
# Inconclusive results, whose numbers are uncertain, are shown with a selection of clear calls. For part of these data: No potency is given beside an inconclusive call; the fits are too rough. Activity calls are given as the source filed them. Unless noted, calls follow the shape of the dose curve; as a rule, active = well fitted curve in the direction sought with a large enough effect; inconclusive = small, poorly fitted or top-dose-only effect, or another doubt; inactive = no such curve, though single readings can be large; an effect the other way counts as inactive or inconclusive.
# Key:
# [1] = qHTS of pediatric cancer cell lines to identify multiple opportunities for drug repurposing: Primary screen for A673 cells (AID 1347092); details: A673 Ewing sarcoma viability, CellTiter-Glo ATP luminescence, 48 h; activity change, negative = cytotoxic: at 46 µM (top of the series); also: nearly all actives have a fitted effect of over 45% in size; also: potency is read from the fitted curve at half-maximal effect
# In short: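 A673 cells (500-1,000 cells/well) were treated 48 hours at 37 degrees C with compounds at 11-point (0.78 nM to 46 µM) or 8-point (0.59 nM to 46 µM) dilutions. Viability read by CellTiter-Glo luminescence; concentration-response curves fitted.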
# [2] = Drug repurposing screens with cells derived from glioblastoma tumor samples (AID 1345199); details: GBM patient neurospheres viability, ATP luminescence, 48 h; Potency: tumour line A unless noted; series mostly up to 46 µM; also: nearly all actives have a fitted effect of over 40% in size; also: potency is read from the fitted curve at half-maximal effect
# In short: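 Primary testing used CD133+ neurospheres from four GBM patients, seven concentrations, 48 h exposure and ATP-based viability; confirmation added three slower-growing patient lines.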
# [3] = qHTS of pediatric cancer cell lines to identify multiple opportunities for drug repurposing: Primary screen for Rh41 cells (AID 1347108); also: nearly all actives have a fitted effect of over 70% in size; also: potency is read from the fitted curve at half-maximal effect;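 as to activity change, negative = cytotoxic: luminescence drop marks cytotoxic hits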
# In short: (§1)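 ATP-based luminescence (CellTiter-Glo) quantifies viability after a 48-hour exposure. Compounds are dosed across 8 or 11 final concentrations; DMSO and 2.3 µM bortezomib serve as controls.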
# [4] = Primary qHTS for small molecule stabilizers of the endoplasmic reticulum resident proteome: Secreted ER Calcium Modulated Protein (SERCaMP) assay (AID 1508630); details: SH-SY5Y GLuc-SERCaMP (Gaussia luciferase released on ER calcium loss) secretion, thapsigargin, luminescence; series mostly up to 38.4 µM; also: potency is read from the fitted curve at half-maximal effect
# In short: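 The SH-SY5Y reporter protocol was run at 3 concentrations up to 38.3 uM (primary) or 11 concentrations (follow-up): 16 h compound, 100 nM thapsigargin for 4 h, then extracellular luciferase luminescence.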
# [5] = qHTS of pediatric cancer cell lines to identify multiple opportunities for drug repurposing: Primary screen for SK-N-MC cells (AID 1347093); details: SK-N-MC viability, CellTiter-Glo luminescence, 48 h; activity change, negative = cytotoxic: at 46 µM (top of the series); also: potency is read from the fitted curve at half-maximal effect
# In short: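 Metabolically active cells were quantified by ATP-dependent luminescence (CellTiter-Glo, 15 min at room temperature) following 48 h treatment. Cells had been plated at 500-1,000 per well and settled for 5 h beforehand.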
# [6] = system: UISO; assay: qHTS assay to identify novel small-molecules to repurpose for Merkel cell carcinoma treatment (AID 1296009); details: MCC and control cell lines, CellTiter-Glo viability, 72 h; series mostly up to 46 µM; also: nearly all actives have a fitted effect of over 60% in size; also: potency is read from the fitted curve at half-maximal effect
# In short: (§2)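 Dose-response viability screen; 72 hr exposure at 37 degree celsius; CellTiter-Glo added, 10 min room temperature, luminescence read; RLUs scaled between no-cell and DMSO wells.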
# [7] = qHTS of pediatric cancer cell lines to identify multiple opportunities for drug repurposing: Primary screen for Rh18 cells (AID 1347102); also: nearly all actives have a fitted effect of over 65% in size; also: potency is read from the fitted curve at half-maximal effect
# In short: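 Viability after 48 h compound treatment at 37C, 500-1,000 cells/well, read as ATP luminescence with CellTiter-Glo. Primary screens used 11-point (MIPE, 0.78 nM-46 µM) or 8-point (NPC, 0.59 nM-46 µM) final concentrations; follow-up screens used 11-point dilutions.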
# [8] = qHTS of pediatric cancer cell lines to identify multiple opportunities for drug repurposing: Primary screen for OHS-50 cells (AID 1347103); details: OHS-50 osteosarcoma viability, CellTiter-Glo luminescence, 48 h; activity change, negative = cytotoxic: at 57.3 µM (top of the series); also: nearly all actives have a fitted effect of over 40% in size
# In short: (§3)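 Cells (500-1,000/well) rested 5 h, then received compounds for 48 h; metabolically active cells were measured by CellTiter-Glo luminescence. Final concentrations spanned up to 46 µM (MIPE, 11-point) or 0.59 nM-46 µM (NPC, 8-point) in primary screens, 11-point in follow-ups.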
# [9] = system: MKL-2; assay: qHTS assay to identify novel small-molecules to repurpose for Merkel cell carcinoma treatment (AID 1296009); details: MCC and control cell lines, CellTiter-Glo viability, 72 h; series mostly up to 46 µM; also: nearly all actives have a fitted effect of over 60% in size; also: potency is read from the fitted curve at half-maximal effect
# In short: as §2
# [10] = qHTS of pediatric cancer cell lines to identify multiple opportunities for drug repurposing: Primary screen for Saos-2 cells (AID 1347097); details: Saos-2 viability, CellTiter-Glo ATP luminescence, 48 h; activity change, negative = cytotoxic: at 46 µM (top of the series); also: nearly all actives have a fitted effect of over 40% in size; also: potency is read from the fitted curve at half-maximal effect
# In short: as §1
# [11] = qHTS of pediatric cancer cell lines to identify multiple opportunities for drug repurposing: Primary screen for SK-N-SH cells (AID 1347098);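 also: DMSO served as neutral control and bortezomib at 2.3 µM as positive control; nearly all actives have a fitted effect of over 65% in size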
# In short: as §3
# [12] = system: GB4; assay: qHTS profiling for inhibitors of Plasmodium falciparum proliferation (AID 504749); also: nearly all actives have a fitted effect of over 60% in size; also: potency is read from the fitted curve at half-maximal effect; details: P. falciparum in erythrocytes, SYBR Green DNA, 72 h; series mostly up to 28.7 µM
# In short: (§4)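 Each compound contacts P. falciparum-infected red blood cells for 72 h at 37 C; lysis buffer (Tris, EDTA, saponin, Triton X, SYBR Green I) is added and fluorescence measured next morning; values normalized to controls.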
# [13] = qHTS of pediatric cancer cell lines to identify multiple opportunities for drug repurposing: Primary screen for SJ-GBM2 cells (AID 1347091); also: potency is read from the fitted curve at half-maximal effect
# In short: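 Viability measured as metabolically active cells via CellTiter-Glo luminescence following 48 hours of compound exposure, 11-point dilutions in confirmatory testing. 500-1,000 cells/well plated 5 hours before dosing; controls were DMSO and 2.3 µM bortezomib.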
# [14] = target: Cytochrome P450 2C9 (Homo sapiens) (UniProt P11712); assay: Cytochrome P450 family 2 subfamily C member 9 (CYP2C9) small molecule antagonists: luciferase biochemical (cell-free) qHTS assay (AID 1645842; active = well fitted curve in the direction sought with a large enough effect in the repeat runs; inconclusive = weak or mixed curves; inactive = no such curve, though single readings can be large; an effect the other way counts as inactive or inconclusive; also: potency is read from the fitted curve at half-maximal effect; nearly all actives have a fitted effect of over 55% in size)
# Chain of UniProt P11712 (P11712 whole entry, looked up): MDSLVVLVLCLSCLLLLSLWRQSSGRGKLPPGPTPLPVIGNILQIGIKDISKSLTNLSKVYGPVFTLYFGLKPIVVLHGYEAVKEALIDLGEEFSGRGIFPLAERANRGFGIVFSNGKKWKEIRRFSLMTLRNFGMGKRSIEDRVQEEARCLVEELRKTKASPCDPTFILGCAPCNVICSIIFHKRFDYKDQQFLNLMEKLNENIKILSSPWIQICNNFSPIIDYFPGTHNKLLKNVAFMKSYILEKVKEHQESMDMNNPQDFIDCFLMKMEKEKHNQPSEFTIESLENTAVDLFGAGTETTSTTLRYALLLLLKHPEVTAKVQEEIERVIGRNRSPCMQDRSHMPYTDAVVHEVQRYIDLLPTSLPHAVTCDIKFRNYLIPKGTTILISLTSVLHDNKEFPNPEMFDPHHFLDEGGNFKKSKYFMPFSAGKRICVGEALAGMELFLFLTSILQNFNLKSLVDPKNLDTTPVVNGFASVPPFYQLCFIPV
# In short: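 P450-Glo CYP2C9 system: proluciferin substrate with enzyme in mix containing 0.4% BSA, 10 min at room temperature, then NADPH regeneration solution added and incubated 1 h at 37C. Detection reagent stopped reaction; luminescence read after 20 min as RLU.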
# [15] = system: W2; assay: qHTS profiling for inhibitors of Plasmodium falciparum proliferation (AID 504749); also: nearly all actives have a fitted effect of over 60% in size; also: potency is read from the fitted curve at half-maximal effect; details: P. falciparum in erythrocytes, SYBR Green DNA, 72 h; series mostly up to 28.7 µM
# In short: as §4
# [16] = qHTS of pediatric cancer cell lines to identify multiple opportunities for drug repurposing: Primary screen for BT-12 cells (AID 1347101); also: nearly all actives have a fitted effect of over 25% in size
# In short: as §3
# Tags tell the direction and shape of the fitted curve.
structure (smiles),measurement,setting,value
CN1[C@@H]2CC[C@H]1CC(NC(=O)n1c(=O)[nH]c3ccccc31)C2 (stereo partly specified),Potency,[1],inactive
same,Potency,[2],active: 28.2 µM
CC(O)CN(CCN(CC(C)O)CC(C)O)CC(C)O (stereo unspecified),Potency,[1],inactive
same,Potency,[3],inactive
same,Potency,[4],"inconclusive [inhibitor, single point]"
same,Potency,[2],"inconclusive [inhibitor, partial curve, poor fit] [tumour line C]"
CC(C)C[C@@H](N)C(=O)O,Potency,[5],"inconclusive [cytotoxic, full curve, poor fit]"
same,Potency,[3],inactive
same,Potency,[6],inactive
same,Potency,[2],inactive
Cc1ccc(O)cc1,Potency,[1],inactive
same,Potency,[5],inactive
same,Potency,[7],inactive
same,Potency,[8],inactive
same,Potency,[4],"inconclusive [inhibitor, partial curve, poor fit]"
same,Potency,[9],inactive
same,Potency,[2],"inconclusive [inhibitor, partial curve]"
Nc1ccc(S(=O)(=O)NCc2ccccc2)cc1,Potency,[5],inactive
same,Potency,[10],inactive
same,Potency,[11],inactive
same,Potency,[9],inactive
same,Potency,[6],inactive
same,Potency,[2],"inconclusive [inhibitor, partial curve]"
same,Potency,[12],inactive
N[C@H](C(=O)O)[C@@H](O)c1ccc(O)c(O)c1,Potency,[13],inactive
same,Potency,[1],inactive
same,Potency,[5],"inconclusive [cytotoxic, partial curve, poor fit]"
same,Potency,[8],inactive
same,Potency,[4],"inconclusive [inhibitor, full curve, poor fit]"
same,Potency,[2],"inconclusive [inhibitor, single point]"
C#C[C@]1(O)CC[C@H]2[C@@H]3CCC4=CC(=O)CC[C@@H]4[C@H]3CC[C@@]21CC,Potency,[8],inactive
same,Potency,[14],active: 12.3 µM
same,Potency,[9],inactive
same,Potency,[2],"inconclusive [inhibitor, partial curve]"
same,Potency,[15],"inconclusive [inhibitor, single point]"
Nc1nc2c(ncn2CCC(CO)CO)c(=O)[nH]1,Potency,[9],inactive
same,Potency,[2],"inconclusive [inhibitor, partial curve, poor fit]"
CCNC(=O)NCCCOc1cccc(CN2CCCCC2)c1,Potency,[10],inactive
same,Potency,[16],inactive
same,Potency,[14],"inconclusive [inhibitor, single point]"
same,Potency,[9],inactive
same,Potency,[2],active: 17.8 µM
COc1cc([C@@H]2c3cc4c(cc3[C@@H](O[C@@H]3O[C@@H]5CO[C@@H](c6cccs6)O[C@@H]5[C@H](O)[C@@H]3O)[C@H]3COC(=O)[C@H]23)OCO4)cc(OC)c1O,Potency,[13],active: 118 nM
same,Potency,[1],active: 372 nM
same,Potency,[10],active: 590 nM
same,Potency,[7],"inconclusive [cytotoxic, full curve]"
same,Potency,[3],"inconclusive [cytotoxic, full curve]"
same,Potency,[9],active: 118 nM
same,Potency,[6],active: 1.87 µM
NC(=O)Nc1cc(-c2cccc(F)c2)sc1C(=O)NC1CCCNC1 (stereo unspecified),Potency,[14],"inconclusive [inhibitor, full curve, poor fit]"
C[C@@H]1CC[C@@]2(OC1)OC1CC3C4CC=C5CC(O)CCC5(C)C4CCC3(C)C1[C@@H]2C (stereo partly specified),Potency,[11],inactive
